Measured values reported in PMC10040876.
These are yes or no findings as the source states them, for the method shown. In cells and extracts the contact can be indirect. Some binding calls cover weakened binding; strength is not graded here. For part of these data: Sequences can lack the tags named with a protein. One block for each binder: values may come before it.

Sequences of proteins named here, by UniProt entry; tags and fusion partners are left off. A change or cut given only in a name is not applied to a line headed by its entry. Residues count along the entry.
UniProt Q96FW1: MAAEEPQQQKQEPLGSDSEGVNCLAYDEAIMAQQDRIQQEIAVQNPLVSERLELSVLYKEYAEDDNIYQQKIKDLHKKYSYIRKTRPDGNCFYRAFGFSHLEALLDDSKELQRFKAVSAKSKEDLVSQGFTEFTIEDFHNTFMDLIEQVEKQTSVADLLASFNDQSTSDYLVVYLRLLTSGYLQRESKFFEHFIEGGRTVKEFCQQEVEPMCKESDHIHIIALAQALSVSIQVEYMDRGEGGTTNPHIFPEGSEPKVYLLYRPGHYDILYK
Flag-OTUB1-N (1–80 aa): residues 1-80 of Q96FW1
Flag-OTUB1-C (81–271 aa): residues 81-271 of Q96FW1

Legend:
[1] = molecular target: Myc-OTUB1 (human) (UniProt Q96FW1); assay: co-IP; HEK293T cells cotransfected with tagged plasmids for 24 h; anti-Myc, anti-HA or anti-Flag antibody-conjugated agarose beads; immunoblot
[2] = molecular target: GST-tagged OTUB1-K122R (human) (UniProt Q96FW1); assay: pull-down; GST pull-down in vitro; GST-tagged OTUB1 proteins and His-tagged SET7 each expressed in E. coli (BL21); detected with anti-His antibody
[3] = molecular target: GST-tagged OTUB1 (human) (UniProt Q96FW1); assay: as above
[4] = molecular target: Flag-OTUB1-N (1–80 aa) (human) (UniProt Q96FW1); assay: co-IP; HEK293T cells cotransfected with tagged plasmids for 24 h; anti-Myc, anti-HA or anti-Flag antibody-conjugated agarose beads; immunoblot
[5] = molecular target: Flag-OTUB1-C (81–271 aa) (human) (UniProt Q96FW1); assay: as above
[6] = molecular target: endogenous OTUB1 (H1299 cells) (human (endogenous in H1299)) (UniProt Q96FW1); assay: co-IP; endogenous proteins in H1299 cells; anti-OTUB1 antibody for immunoprecipitation, normal rabbit IgG and OTUB1-deficient cells as controls; blot with anti-SET7

B1: HA-SET7 (protein, UniProt Q8WTS6 1-366)
chain: MDSDDEMVEEAVEGHLDDDGLPHGFCTVTYSSTDRFEGNFVHGEKNGRGKFFFFDGSTLEGYYVDDALQGQGVYTYEDGGVLQGTYVDGELNGPAQEYDTDGRLIFKGQYKDNIRHGVCWIYYPDGGSLVGEVNEDGEMTGEKIAYVYPDERTALYGKFIDGEMIEGKLATLMSTEEGRPHFELMPGNSVYHFDKSTSSCISTNALLPDPYESERVYVAESLISSAGEGLFSKVAVGPNTVMSFYNGVRITHQEVDSRDWALNGNTLSLDEETVIDVPEPYNHVSKYCASLGHKANHSFTPNCIYDMFVHPRFGPIKCIRTLRAVEADEELTVAYGYDHSPPGKSGPEAPEWYQVELKAFQATQQK
binding [1]: binds

B3: Myc-SET7 (protein, UniProt Q8WTS6 1-366)
chain: B1 chain
binding [4]: no binding | binding [5]: binds

Next, values leading:

binding [2]: binds | binding [3]: binds
B2: His-tagged SET7 (protein, UniProt Q8WTS6 1-366)
chain: B1 chain

binding [6]: binds
B4: endogenous SET7 (H1299 cells) (protein, UniProt Q8WTS6 1-366)
chain: B1 chain
